Among all 44,000 compounds or so, about 340 (0.77%) were called active. About 5% were inconclusive and are not listed. Calls follow the shape of the dose curve; as a rule, active = well fitted inhibition curve with a large enough effect; inconclusive = small, poorly fitted or top-dose-only effect; inactive = flat fitted curve, though single readings scatter. This is one part of the list.
experiment: Acumen qHTS Assay for Inhibitors of the mTORC1 Signaling Pathway in MEF (Tsc2-/-, p53-/-) Cells: Sytravon; conditions: phospho-rpS6 immunofluorescence/PI, 24 h; series mostly up to 38.3 µM; activity change, negative = inhibition: at the top concentration;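 also: plate controls were DMSO for no effect and rapamycin for full effect; nearly all actives have a fitted effect of over 50% in size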
Procedure, shortened: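 Tsc2-/-, p53-/- MEFs (empty-vector stable line) in DMEM + 10% FBS were treated with compounds 24 h at 37 degree Celsius, fixed, and immunostained for phospho-rpS6 (Alexa-488) with propidium iodide counterstain. Laser-scanning cytometry gave % positive cells, normalized against 7.5 nM rapamycin and DMSO.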

Activity change, negative = inhibition, inactive:
CCn1cc(S(=O)(=O)c2cccc(Cl)c2)c(=O)c2cc(F)c(N3CCC(C)CC3)cc21 5.05%, Cc1ccc(NC(=O)c2c(C)oc3ncnc(N4CCCCC4)c23)cc1Cl 1.59%, Cc1ccc(-n2nc(C)c3c(C)cc(=O)n(CC(=O)N4CCCc5ccccc54)c32)cc1 -7.99%, O=C(Cc1ccc(Cl)cc1)Nc1nnc2n1CCS2 -0.135%, COc1ccc(C)cc1NC(=O)CCc1c(C)nn(-c2ccc(N3CCOCC3)nn2)c1C -0.287%, O=C(COCc1cc(-c2cccs2)on1)NCc1ccc(Cl)cc1 -1.45%, COc1cccc(CNC(=O)Cc2csc3ccccc23)c1OC -15.7%, COc1ccc(NC(=O)C(=O)NCC2(c3ccc(OC)c(OC)c3)CCCC2)cc1 -4.01%, COc1cccc(OCc2nc3ccccc3n2Cc2ccccc2C)c1 0.927%, COc1ccc(NC(=O)CCCSc2nc(-c3ccco3)cc(C(F)(F)F)n2)c(OC)c1 1.24%, CCCOC(=O)c1c(NC(=O)C2c3ccccc3Oc3ccccc32)sc2c1CCCC2 3.42%, COc1cc(NC(=O)Cn2nnc(-c3ccc(C(F)(F)F)cc3)n2)c(C(=O)O)cc1OC 0.711%, CCOc1ccc(N(CC)C(=O)C2CCN(S(=O)(=O)c3cccc4nonc34)CC2)cc1 -1.12%, COc1ccc(CCC(=O)NC2CC(=O)N(c3cccc(F)c3)C2)cc1 (stereo not drawn) 1.69%, CCC(=O)n1nc(-c2cccnc2)nc1NCc1ccc(F)cc1 2.52%, O=C(Cn1c(=O)oc2cc(S(=O)(=O)NCc3ccccc3)ccc21)Nc1ccc(F)c(Cl)c1 -5.37%, Cc1cc(C)c(NC(=O)CCn2c(=O)c3cccn3c3cccnc32)c(C)c1 -6.05%, CCc1ccccc1NC(=O)Cn1nc(C(F)(F)F)c2c1CCCC2 -4.02%, OCCN1CCN(C(c2ccccc2Cl)c2sc3nc(-c4ccco4)nn3c2O)CC1 (stereo not drawn) 0.629%, CCCS(=O)(=O)N1CC(=O)N(c2cc(C)ccc2C)C(C)(C(=O)NC2CCCCCC2)C1 (stereo not drawn) 4.44%, COc1cccc(-c2cn3c(n2)sc2cc(C(=O)NCCc4ccc(OC)c(OC)c4)ccc23)c1 -7.47%, CC(C)N1C(=O)C(O)(c2c[nH]c3ccccc23)c2ccccc21 (stereo not drawn) -5.36%, Cc1cccc(N2CCn3c2nc2c3c(=O)n(CCc3ccccc3)c(=O)n2C)c1 -1.4%, Cc1cccc(N2C(=O)CS(=O)(=O)C23C(=O)N(Cc2c(F)cccc2Cl)c2ccccc23)c1 (stereo not drawn) 2.22%, CSc1cccc(NC(=O)CN2CCN(Cc3ccccc3C)S2(=O)=O)c1 -8.07%, Cc1cc(N)c(-n2cc3c(c2-c2ccc(Br)cc2)c(=O)n(C)c(=O)n3C)cc1C -2.28%, O=C(O)CCCNc1cc(N2CCN(C3CCCCC3)CC2)c2noc3c2c1C(=O)c1ccccc1-3 -8.01%, CCOc1ccc(-c2cc(C(=O)Nc3ccc(NC(C)=O)cc3)no2)cc1 -3.29%, CCOc1ccc(OCC)c(NC(=O)CC(C)n2nc(C)cc2C)c1 (stereo not drawn) -8.26%, Cc1ccc2onc(CNC(=O)NCc3cccc(Cl)c3)c2c1 3.85%, CCOc1ccc(NC(=O)CC2C(=O)N(c3ccc(C)cc3)C(=O)N2CCC2=CCCCC2)cc1 (stereo not drawn) 3.55%, Nc1nonc1-c1nc2ccccc2n1Cc1cccc(Cl)c1 -22.6%, O=C(c1cccn2c(=O)c3cc(Cl)ccc3nc12)N1CCN(c2ccccc2F)CC1 -1.53%, Cc1ccc(CN(C(=O)c2ccccc2F)c2ccccn2)o1 -5.8%, CC(C)c1ccc(NC(=O)c2ccc(F)c(S(=O)(=O)N3CCc4ccccc4C3)c2)cc1 4%, CC(=O)Nc1ccc(S(=O)(=O)N2CCC(c3nnnn3-c3ccccc3)CC2)cc1 -2.57%, CCOc1ccc(-n2nc(CO)c(C(=O)NCCCc3ccccc3)n2)cc1 -6.31%, COc1ccc(Cl)cc1NC(=O)Cn1cc(C(=O)c2ccc(C)cc2)c(=O)c2ccc(C)nc21 5.47%, CCOc1ccc(C(=O)Nc2cccc(C(=O)OCc3cc(=O)n4nc(C5CC5)sc4n3)c2)cc1 14.9%, CCOC(=O)c1ccccc1NC(=O)CSc1nc(=O)[nH]c2c1CCC2 -3.27%, Cc1ccccc1CN1C(=O)C2(c3ccccc31)N(c1ccccc1)C(=O)CS2(=O)=O (stereo not drawn) 2.09%, COc1ccc(CCNC(=O)c2c(O)nc3ccccn3c2=O)cc1 -3.12%, O=C(COc1ccc(Cl)cc1)Nc1ccc(C(=O)OCc2cc(=O)n3ccsc3n2)cc1 1.07%, C=Cc1ccc(Cn2c(C)c(CNCCc3ccccc3C)c(C(=O)O)c2C)cc1 -0.815%, FC(F)(F)Oc1ccc2c(c1)NC(c1ccncc1)=NC(c1cccs1)=N2 -13.6%, Cc1ccn2c(=O)c(C(=O)NCCCN3CCCCC3C)c(O)nc2c1 (stereo not drawn) -7.57%, C=CCc1cccc2cc(C(=O)Nc3ccc(F)cc3)c(=O)oc12 -6.83%, COc1ccc2oc(=O)c(C(=O)Nc3ccc(C(=O)O)cc3)cc2c1 -18.5%, Cc1ccc(NC(=O)CCSc2nc(-c3ccco3)cc(C(F)(F)F)n2)cc1F -4.19%, COc1ccc(OCC(=O)Nc2nnc3n2CCS3)cc1 -1.25%, Cc1c(Cl)cccc1NC(=O)c1ncoc1-c1ccco1 0%, Cc1ccc(NC(=O)C(C)n2nnc3sc4c(c3c2=O)CCCC4)cc1Cl (stereo not drawn) 1.66%, Oc1ccc(NCc2ccccc2OCc2ccccc2F)cc1 -26.5%, CCc1ccc(NC(=O)CSc2nc3ccccc3c(=O)n2CCNC(C)=O)cc1 -4.87%, CC(=O)c1ccc(NC(=O)CCCSc2nc(-c3ccco3)cc(C(F)(F)F)n2)cc1 -11%, Cc1c(Cl)cccc1NC(=O)c1ccc2snnc2c1 0.169%, CCOC(=O)c1c(C)[nH]c(CCC(=O)NCc2ccccc2Cl)c1C 3.94%, CCOC(=O)c1cccc(Nc2cc(-c3ccccc3)ncn2)c1 -5.44%, CCOc1ccc(OCC)c(NC(=O)C2CCN(c3nnc(-n4cccc4)s3)CC2)c1 -0.955%, COc1ccccc1NC(=O)CCN1CCCCC1 9.34%, Cc1nc(-c2ccccc2)sc1CCNC(=O)C(=O)Nc1ccc2c(c1)OCO2 4.77%, Cc1ccc(N(C)C(=O)C2CCN(S(=O)(=O)c3c(C)noc3/C=C/c3c(C)cc(C)cc3C)CC2)cc1 -23.5%, COc1cccc(OCCSc2nc(C)c(Cc3ccccc3)c(=O)[nH]2)c1 1.85%, COc1ccc(NC(=O)CCCN2C(=O)CCn3nc(-c4cn(C)c5ccccc45)cc32)cc1OC -0.259%, CCOC(=O)c1cccc(NC(=O)CC2C(=O)N(c3ccc(OC)cc3)C(=O)N2C2CCCC2)c1 (stereo not drawn) 0.546%, Cc1cccc(N2CCN(S(=O)(=O)c3ccc4[nH]c5c(c4c3)CCCCC5)CC2)c1C -18.6%, Cc1cccc(C(=O)NCC(=O)OCc2cc(=O)n3nc(C4CCCCC4)sc3n2)c1 -0.497%, COc1ccccc1C(=O)Nc1cc2c(cc1N1CCCC1)n(C)c(=O)c(=O)n2C -0.415%, COc1cccc(NC(=O)C2=C(C)C(=O)OC23CCN(C(C)=O)CC3)c1 -0.612%, COC(=O)CN1C(=O)CSc2ccc(S(=O)(=O)Nc3cccc(C)c3C)cc21 -0.868%, Cc1ccc(CN2CCSc3ccc(C(=O)NCC(C)c4ccccc4)cc32)cc1 (stereo not drawn) -9.02%, COc1cc2c(cc1OC)C(COc1ccc3c(C)cc(=O)oc3c1)N(C(=O)c1cc(Cl)ccc1OC)CC2 (stereo not drawn) -6.61%, CCC(=O)N1c2ccc(S(=O)(=O)NCc3ccc(F)cc3)cc2CC1C (stereo not drawn) -13.2%, CCN(CC)C(=O)Cn1nnc2sc(-c3ccccc3)cc2c1=O 2.61%, CCCOc1ccc(CNC(=O)c2ccc(-n3c(C)cc4c3CCC(C)C4)cc2)cc1 (stereo not drawn) -15%, Cc1cc2oc(C(=O)Nc3ccc(S(=O)(=O)Nc4ncccn4)cc3)cc(=O)c2cc1C -1.15%, CCN(C(=O)CSc1nc2ccccc2[nH]1)c1ccccc1 -8.27%, Cc1ccc(NC(=O)Cn2ccn(-c3ccccc3)c(=O)c2=O)cc1 -12.6%, CCOc1ccc(C2NC(=O)c3c(COC)cc(C)nc3N2Cc2ccccc2)cc1OC (stereo not drawn) 8.8%, Cc1ccc(Cn2cc(S(=O)(=O)c3cccc(Cl)c3)c(=O)c3cc(F)c(N4CCOCC4)cc32)cc1 -9.3%, COc1cc(OC)c(NC(=O)CCc2c(C)nc3cc(-c4ccccc4OC)nn3c2C)cc1Cl -0.0145%, CC(C)OC(=O)c1c(NC(=O)C2c3ccccc3Oc3ccccc32)sc2c1CCCC2 -0.74%, Cc1ccc(C)c(N2CCN(C(=O)c3ccc4c(c3)N(Cc3ccc(F)cc3)C(=O)c3ccccc3S4=O)CC2)c1 (stereo not drawn) -0.674%, CC1CCC(Nc2nc3c(-c4cccc(C(F)(F)F)c4)nnn3c3ccccc23)CC1 (stereo not drawn) -3.37%, Cc1ccc(NC(=O)C2CCCN(S(=O)(=O)c3cn(C(C)C)cn3)C2)c(C)c1 (stereo not drawn) 25.2%, COc1ccccc1-c1noc(CCC(=O)Nc2ccc(C)cc2C)n1 4.21%, CC(=O)c1ccc(Nc2cc(C)nc3nc(Cc4ccc(Cl)cc4)nn23)cc1 -0.787%, CCc1ccc2oc(C(=O)Nc3cc(C)ccc3C)cc(=O)c2c1 3.05%, CC(C)c1nn2c(=O)cc(COC(=O)c3ccccc3NC(=O)C3CCCCC3)nc2s1 0%, O=C(Nc1cc2c(cc1C(=O)c1ccccc1Cl)OCCO2)c1ccccc1 -1.89%, CC1Cc2ccccc2N1C(=O)CSc1nnc(-c2ccccc2Cl)o1 (stereo not drawn) -2.94%, CN(C)c1ccc(CNC(=O)c2ccccc2NC(=O)c2nsc3ccccc23)cc1 -4.13%, Cc1ccc(CNC(=O)CCNS(=O)(=O)c2cccc3nsnc23)cc1 -1.61%, CCn1cc(C(=O)N(C)c2ccc(C(C)C)cc2)c2cc(OC)c(OC)cc2c1=O 0%, Cc1ccc2nc(NC(=O)CSc3ncc(C(=O)Nc4ccc(F)cc4)c(=O)n3C)sc2c1 -3.63%, Cc1c(CCC(=O)N2CCCCC2)c(=O)oc2cc3occ(C(C)(C)C)c3cc12 2.92%, COCCn1cc(C(=O)NCCCOC(C)C)c2c3ccccc3n(C)c2c1=O 11.7%, Cc1ccc(Cc2nc3ccccc3nc2SCC(=O)N2CCN(c3ccc(F)cc3)CC2)cc1 0%

From PubChem BioAssay AID493208 (National Center for Advancing Translational Sciences (NCATS), 2011)
